Laboratory results from PubChem BioAssay AID1963576 (National Center for Advancing Translational Sciences (NCATS), 2024).
Screen size: about 46,000 compounds; about 60 (0.1%) were called active. About 3% were inconclusive and are not listed. The call rests on the fitted dose curve; in most records, active means well fitted inhibition curve with a large enough effect; inconclusive means small, poorly fitted or top-dose-only effect; inactive means no such curve, though single readings can be large or run the other way. The list shows a part of the results.

Experiment: Primary qHTS assay for Inhibitors of ovarian cancer metastasis using an organotypic tumor microenvironment (TME) model. Further: nearly all actives have a fitted effect of over 65% in size.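 On activity change, negative = inhibition: plate controls were DMSO wells for no effect and tomatine positive control wells for full effect.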
Conditions: SKOV3ip1-GFP adhesion/invasion on 3D omental model, fluorescence; series mostly up to 45.8 µM; activity change, negative = inhibition: at the top concentration
In short: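 A 3D layer of primary human omental fibroblasts, mesothelial cells, fibronectin and collagen I, grown 48 hr, received SKOV3ip1-GFP cells in serum-free medium plus compounds at 0.36-46 umol/L. After 2 hr RT and 16 hr 37 C, fixed adherent GFP cells were counted; normalized to DMSO and tomatine.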

Activity change, negative = inhibition, inactive:
CC1=C(c2ccc(C)cc2)S(=O)(=O)N(Cc2ccc(C(=O)NCc3cccc(C)c3)cc2)C1=O 7.9%
COc1ccccc1CNS(=O)(=O)c1ccc2[nH]c3c(c2c1)CCCCC3 -17.4%
COc1ccc(N2CCN(C(=O)c3cnc(N4CCCC4)nc3C)CC2)cc1 4.41%
CSc1ccc(CNC(=O)CCn2ccc3cc(S(=O)(=O)N4CCC(C)CC4)ccc32)cc1 -2.3%
COc1ccc(CCNC(=O)Cc2c(C)c3c(cc(C)c4c(C)coc43)oc2=O)cc1 -0.247%
COc1ccc(-c2cc3nc(-c4ccccc4)cc(C(F)(F)F)n3n2)cc1 -10.3%
COCCCNC(=O)Cn1c(=O)n(Cc2ccc(C(=O)NCc3ccc(C)cc3)cc2)c(=O)c2ccccc21 5.05%
CCCCN(CCCC)CC(O)c1cc(Cl)cc2c1-c1ccc(Cl)cc1C2=Cc1ccc(Cl)cc1 (configuration not stated) 5.27%
COC(=O)c1ccc(NC(=O)CSc2nc3ccc(OC)cc3[nH]2)cc1 3.52%
Cc1ccc(NC(=O)CSc2nc(C)c(Cc3ccccc3)c(=O)[nH]2)cc1 -1.91%
O=C(Nc1sc2c(c1C(=O)Nc1ccccc1Cl)CCCC2)c1ccccc1F -9.3%
COC(=O)c1c(NC(=O)c2cc(=O)c3ccc(C)c(C)c3o2)sc2c1CCCC2 -6.61%
Cc1ccc(NC(=O)c2c(NC(=O)c3ccco3)sc3c2CCC(C(C)(C)C)C3)c(C)c1 (configuration not stated) 1.56%
COc1cc(OC)c(NC(=O)c2nnn(Cc3ccc(C)cc3)c2N)cc1Cl -6.89%
Cc1ccc(NC(=O)CN2C(=O)CSc3ccc(S(=O)(=O)N4CCCC4)cc32)cc1F -5.34%
CCOc1ccc(NC(=O)c2oc3ccccc3c2NC(=O)Cc2ccc(F)cc2)cc1 -5.27%
CCC(C)c1ccc(OCC(=O)Nc2cccc(-c3nc4ncccc4o3)c2)cc1 (configuration not stated) -14.7%
Cc1ccccc1Cn1cc(CCC(=O)NC(C)c2ccccc2)c2ccccc21 (configuration not stated) 6.67%
O=C(Cn1ncc2c3ccccc3n(Cc3ccc(Cl)cc3)c2c1=O)N1CCCCCC1 2.77%
COc1cccc(-c2cn3c(n2)sc2cc(C(=O)NC4CCCCCC4)ccc23)c1 -2.39%
O=C(Cc1ccc(F)cc1)NC1CC(=O)N(c2ccc3c(c2)OCCO3)C1 (configuration not stated) -9.23%
CCN(CC)c1nn2c(=O)c(C(=O)NCc3ccc(OC)cc3OC)cnc2s1 -3.19%
Clc1ccccc1N1CCN(c2ncnc3c2c(-c2ccccc2)cn3-c2ccccc2)CC1 3.87%
O=C(NCC(c1cccs1)S(=O)(=O)c1cccs1)c1ccccc1F (configuration not stated) -1.57%
Cc1ccccc1NC(=O)CCC(=O)N1CCSc2ccccc21 -5.19%
CC(=O)N1c2ccc(S(=O)(=O)NCC3CCC(C(=O)NC(C)(C)C)CC3)cc2CC1C (configuration not stated) -5.34%
Cc1ccc(S(=O)(=O)N(CC(=O)Nc2ccc(C(C)C)cc2)Cc2ccccc2)cc1 -0.0634%
O=C(Nc1ccc2c(c1)CCCN2C(=O)c1cccs1)c1cccc(C(F)(F)F)c1 -0.82%
Cc1ccc(-n2nc3ccc(NC(=O)c4oc5ccccc5c4C)cc3n2)cc1 -3.97%
COc1ccccc1CNC(=O)c1ccccc1NC(=O)c1nsc2ccccc12 16.6%
Cc1cccc(N2CCN(C(=O)c3cc(S(=O)(=O)N4CCC(C)CC4)cn3C)CC2)c1C -8.51%
Clc1cccc(-n2ncc3c(NC4CCCCC4)ncnc32)c1 -27%
CCOc1ccc(-c2nnc(SCC(=O)NC3CCCC3)nc2-c2ccc(OCC)c(OC)c2)cc1OC 7.53%
CCOC(=O)C1CCN(C(=O)c2cc3ccc4cccnc4c3[nH]2)CC1 1.84%
CCOc1ccc(CCNC(=O)C2CCN(c3ncnc4c3nc3n4CCCCC3)CC2)cc1 -7.16%
O=C(NCCCN1CCN(c2ccccc2)CC1)c1nnc(Cc2c(F)cccc2Cl)o1 -2.01%
O=C(NCc1ccc(Cl)cc1)C(=O)NCC(c1cccs1)S(=O)(=O)c1ccc(Cl)cc1 (configuration not stated) -3.49%
COC(=O)c1sccc1S(=O)(=O)N(CC(=O)NCc1ccccc1)c1ccccc1 0.94%
Cc1ccc(CNC(=O)C(=O)NCC(c2cccs2)S(=O)(=O)c2ccc(C)cc2)cc1 (configuration not stated) -8.15%
COc1ccc(NS(=O)(=O)c2ccc3c(c2)C(C(C)C)C(=O)N3)cc1 (configuration not stated) -1.31%
CCn1c(C)c(C2N3CC4(C)CN2CC(CC)(C3)C4=O)c2ccccc21 (configuration not stated) -0.325%
COc1ccc(NC(=O)CSc2nc3c([nH]c4ccccc43)c(=O)n2C)cc1 14.7%
Cc1ccc(CNC(=O)CSc2ncc(S(=O)(=O)c3ccc(Br)cc3)c(=O)[nH]2)cc1 19.2%
COc1ccc(Nc2ncnc3c2cnn3-c2ccc(C)cc2C)cc1 -5.43%
Cc1nn(C(=O)c2ccccc2F)c(C)c1S(=O)(=O)N1CCOCC1 -11.5%
Cc1c(C(=O)N2CCC(C)CC2)c(S(=O)(=O)NCc2ccccc2)c(C)n1C -3.08%
CC(=O)c1cccc(NC(=O)Cn2c(=O)c(CNc3ccc(C)cc3)cc3cc4c(cc32)OCCO4)c1 -0.437%
CCOc1cc(C(=O)Nc2ccc(Cl)c(-c3nc4ccccc4[nH]3)c2)cc(OCC)c1OCC 2.57%
Cc1ccc(-c2sc(C(=O)Nc3ccc(Br)cc3)cc2CC(=O)O)cc1 5.04%
COc1cc(Cl)c(C)cc1NC(=O)CCn1c(=O)c2cccn2c2cccnc21 -19.3%
CSc1ccc(C2c3[nH]c4ccccc4c3CCN2C(=O)CCc2ccccc2)cc1 (configuration not stated) -1.78%
COc1ccc(-c2cn3cccnc3n2)cc1NC(=O)c1c(F)cccc1F -3.34%
Cc1cccc(CCNC(=O)CCS(=O)(=O)c2cc3c(cc2Cl)NC(=O)CO3)c1 -4.95%
COc1ccc(C)cc1Nc1nc2ccccc2c2nnc(C)n12 -1.92%
CC(C)c1nc2ccc(C(=O)NCc3ccc(N(C)C)cc3)cc2o1 -19.7%
Cc1ccc(-n2nc3c(=O)n(CCCC(=O)NCCc4ccccc4)nc(C)c3c2C)cc1 -11.8%
CCOC(=O)[C@H](CCc1ccccc1)N[C@@H](C)C(=O)N1CCCC1C(=O)O (some centres not stated) 0.298%
COc1ccccc1-c1noc(CSc2nnc(Cc3ccccc3)n2-c2ccc(C)c(C)c2)n1 1.86%
CCOC(=O)c1c(N)n(-c2ccccc2CC)c2nc3ccccc3nc12 14.1%
CC(C)C(=O)Nc1ccc2nc(SCC(=O)N3CCOCC3)sc2c1 -1.71%
Cc1cccc(NC(=O)CSc2nc3c(oc4ccccc43)c(=O)n2Cc2ccco2)c1 35.2%
CCOc1ccc(CNC(=O)CCC(=O)N2CC3CCCN3c3ccccc32)cc1 (configuration not stated) 0.887%
O=S(=O)(c1ccc(Br)cc1)c1nnn2c1nc(NC1CCCCCC1)c1sccc12 -5.19%
Cc1ccc(N2CC(c3nnc(NC(=O)c4ccco4)s3)CC2=O)cc1Cl (configuration not stated) 2.6%
O=C(O)c1cc(=O)[nH]c(=O)[nH]1 -6.99%
Cc1ccc(-n2nc3ccc(NC(=O)c4cc5ccccc5o4)cc3n2)cc1 23.8%
Cn1c(=O)c2sccc2n2c(CCC(=O)N3CCN(c4ccccc4)CC3)nnc12 14.3%
CCC(=O)Nc1sc2c(c1C(=O)Nc1ccccc1C)CCC(C)C2 (configuration not stated) -9.07%
CCc1ccc(NC(=O)N2CCN(Cc3cc(=O)n4nc(-c5ccccc5OC)sc4n3)CC2)cc1 5.41%
CCOC(=O)c1cccc(NC(=O)NCCc2c(C)nn(C)c2C)c1 -1.18%
COc1ccc2nc(NC(=O)c3ccc(S(=O)(=O)N4CCC(C)CC4)cc3)sc2c1 31.7%
CCC(Cc1ccccc1)NC(=O)c1oc(=O)c2ccccc2c1-c1ccccc1 (configuration not stated) 5.88%
COc1ccc(-c2nc(CSCC(=O)NCCc3ccc(C)cc3)c(C)o2)cc1OC 3.7%
O=S(=O)(NCC(c1ccco1)N1CCN(c2ccc(F)cc2)CC1)c1ccccc1 (configuration not stated) 2.46%

outcome, inactive:
CCC(Sc1nc2ccccc2c2nc(CCc3c(C)n[nH]c3C)nn12)C(=O)Nc1ccc(F)cc1 (configuration not stated)
COc1ccc(CCNC(=O)CN(c2ccccc2OC)S(=O)(=O)c2ccc(C)cc2)cc1
CCc1ccc(NC(=O)c2cc(S(=O)(=O)NC3CCCC3)ccc2F)cc1
COC(=O)c1cc(NC(=O)c2oc(=O)c3ccccc3c2-c2ccccc2)cc(C(=O)OC)c1
Cc1cc(C)c2oc(-c3cccc(NC(=O)c4ccc(Br)o4)c3)nc2c1
COc1ccc(Br)cc1CNC(=O)Cn1c(=O)c2cccn2c2ccc(F)cc21
CCN(C(=O)c1noc2c1COc1ccc(C)cc1-2)c1cccc(C)c1
CCc1nn(CC(=O)NCCC(C)C)c(=O)c2cc3occc3n12
Nc1c(C(=O)Nc2ccccc2Cl)c2ccccn2c1C(=O)c1ccc(Cl)cc1
COc1cccc(CC(=O)Nc2ccc3nc(N4CCC(C)CC4)cc(C)c3c2)c1
COc1ccccc1C(=O)Nc1ccc2nc(N3CCC(C)CC3)cc(C)c2c1
Cc1ccc(C(=O)Nc2ccc(Br)cc2)cc1S(=O)(=O)N1CCOCC1
CCOc1ccccc1NS(=O)(=O)c1c(C)nc2sccn2c1=O
Cc1cc(C)c(NC(=O)Cn2c(SCC(=O)NCc3ccccc3)nc3ccccc32)c(C)c1
CCn1c(=O)c2cc(C(=O)N(CCCOC(C)C)Cc3ccco3)sc2c2ccccc21
COc1cccc(CNC(=O)C2CCN(S(=O)(=O)c3ccc4c(ccn4C)c3)CC2)c1
Cc1ccc(C)n1-c1nnc(N2CCC(C(=O)NCc3ccc(F)cc3)CC2)s1
Cc1cc(NS(=O)(=O)c2ccc3nc(-c4ccccc4)[nH]c3c2)ccc1Br
CCc1nc2cccnc2n1-c1ccc(CC(=O)Nc2ccccc2Cl)cc1
COc1ccc(Cl)cc1NC(=O)c1cc(S(=O)(=O)N2CCC(C)CC2)cn1C
CCN1CCN(C(c2cccc(F)c2)c2c(O)cc(C)n(CCOC)c2=O)CC1 (configuration not stated)
Cc1cccc(C)c1OCCCCn1c(C2CC(=O)N(c3ccc(F)cc3)C2)nc2ccccc21 (configuration not stated)
COC(=O)c1ccccc1NC(=O)c1noc2c1CSc1ccccc1-2
